Source: publication PMC9911399, “Two distinct binding modes provide the RNA-binding protein RbFox with extraordinary sequence specificity”
Substitutions are numbered along the chain they refer to; changes in the protein carry UniProt numbers. Some of the results follow.

B1: GUGGCGU (DNA:RNA)
RNA: GGGAGACCGGAAUUCAGAUUGUCCGUGGCGUUUAAAUCCCGUCGUAGCCACCA
DNA 1: CAATCTGAATTCCGGTCTCCC
DNA 2: TGGTGGCTACGACGGGATT
B2: UAAGCAA (DNA:RNA)
RNA: B1 RNA with G25U, U26A, G27A, G30A, U31A
DNA 1: CAATCTGAATTCCGGTCTCCC
DNA 2: TGGTGGCTACGACGGGATT
B3: UUUGUUA (DNA:RNA)
RNA: B1 RNA with G25U, G27U, C29U, G30U, U31A
DNA 1: CAATCTGAATTCCGGTCTCCC
DNA 2: TGGTGGCTACGACGGGATT
B4: GAGAUCG (DNA:RNA)
RNA: B1 RNA with U26A, G28A, C29U, G30C, U31G
DNA 1: CAATCTGAATTCCGGTCTCCC
DNA 2: TGGTGGCTACGACGGGATT
B5: AUCGCGA (DNA:RNA)
RNA: B1 RNA with G25A, G27C, U31A
DNA 1: CAATCTGAATTCCGGTCTCCC
DNA 2: TGGTGGCTACGACGGGATT
B6: AAUUGAU (DNA:RNA)
RNA: B1 RNA with G25A, U26A, G27U, G28U, C29G, G30A
DNA 1: CAATCTGAATTCCGGTCTCCC
DNA 2: TGGTGGCTACGACGGGATT
B7: UGUAAUG (DNA:RNA)
RNA: GGGAGACCGGAAUUCAGAUUGUCCUGUAAUGUUAAAUCCCGUCGUAGCCACCA
DNA 1: CAATCTGAATTCCGGTCTCCC
DNA 2: TGGTGGCTACGACGGGATT
B8: CGCACUA (DNA:RNA)
RNA: B7 RNA with U25C, U27C, A29C, G31A
DNA 1: CAATCTGAATTCCGGTCTCCC
DNA 2: TGGTGGCTACGACGGGATT
B9: AAUCGAC (DNA:RNA)
RNA: B7 RNA with U25A, G26A, A28C, A29G, U30A, G31C
DNA 1: CAATCTGAATTCCGGTCTCCC
DNA 2: TGGTGGCTACGACGGGATT
B10: UACAAGG (DNA:RNA)
RNA: B7 RNA with G26A, U27C, U30G
DNA 1: CAATCTGAATTCCGGTCTCCC
DNA 2: TGGTGGCTACGACGGGATT
B11: UCAGCGA (DNA:RNA)
RNA: B1 RNA with G25U, U26C, G27A, U31A
DNA 1: CAATCTGAATTCCGGTCTCCC
DNA 2: TGGTGGCTACGACGGGATT
B12: ACUUUGG (DNA:RNA)
RNA: B7 RNA with U25A, G26C, A28U, A29U, U30G
DNA 1: CAATCTGAATTCCGGTCTCCC
DNA 2: TGGTGGCTACGACGGGATT
B13: CGACCUA (DNA:RNA)
RNA: B7 RNA with U25C, U27A, A28C, A29C, G31A
DNA 1: CAATCTGAATTCCGGTCTCCC
DNA 2: TGGTGGCTACGACGGGATT
B14: UCCUGAG (DNA:RNA)
RNA: B7 RNA with G26C, U27C, A28U, A29G, U30A
DNA 1: CAATCTGAATTCCGGTCTCCC
DNA 2: TGGTGGCTACGACGGGATT
B15: ACAAAGA (DNA:RNA)
RNA: B7 RNA with U25A, G26C, U27A, U30G, G31A
DNA 1: CAATCTGAATTCCGGTCTCCC
DNA 2: TGGTGGCTACGACGGGATT
B16: GCGGCUA (DNA:RNA)
RNA: B1 RNA with U26C, G30U, U31A
DNA 1: CAATCTGAATTCCGGTCTCCC
DNA 2: TGGTGGCTACGACGGGATT
B17: CGCUACA (DNA:RNA)
RNA: B7 RNA with U25C, U27C, A28U, U30C, G31A
DNA 1: CAATCTGAATTCCGGTCTCCC
DNA 2: TGGTGGCTACGACGGGATT
B18: UAGGUCA (DNA:RNA)
RNA: B1 RNA with G25U, U26A, C29U, G30C, U31A
DNA 1: CAATCTGAATTCCGGTCTCCC
DNA 2: TGGTGGCTACGACGGGATT
B19: GGGAAGU (DNA:RNA)
RNA: B1 RNA with U26G, G28A, C29A
DNA 1: CAATCTGAATTCCGGTCTCCC
DNA 2: TGGTGGCTACGACGGGATT
B20: AGCGCAU (DNA:RNA)
RNA: B1 RNA with G25A, U26G, G27C, G30A
DNA 1: CAATCTGAATTCCGGTCTCCC
DNA 2: TGGTGGCTACGACGGGATT
B21: GCACUGA (DNA:RNA)
RNA: B1 RNA with U26C, G27A, G28C, C29U, U31A
DNA 1: CAATCTGAATTCCGGTCTCCC
DNA 2: TGGTGGCTACGACGGGATT
B22: UUAUCCG (DNA:RNA)
RNA: B1 RNA with G25U, G27A, G28U, G30C, U31G
DNA 1: CAATCTGAATTCCGGTCTCCC
DNA 2: TGGTGGCTACGACGGGATT
B23: AGUUGGA (DNA:RNA)
RNA: B7 RNA with U25A, A28U, A29G, U30G, G31A
DNA 1: CAATCTGAATTCCGGTCTCCC
DNA 2: TGGTGGCTACGACGGGATT
B24: AGUGAUU (DNA:RNA)
RNA: B7 RNA with U25A, A28G, G31U
DNA 1: CAATCTGAATTCCGGTCTCCC
DNA 2: TGGTGGCTACGACGGGATT
B25: UCGAUUU (DNA:RNA)
RNA: B7 RNA with G26C, U27G, A29U, G31U
DNA 1: CAATCTGAATTCCGGTCTCCC
DNA 2: TGGTGGCTACGACGGGATT
B26: CUGUGGG (DNA:RNA)
RNA: B1 RNA with G25C, G28U, C29G, U31G
DNA 1: CAATCTGAATTCCGGTCTCCC
DNA 2: TGGTGGCTACGACGGGATT
B27: CGACGUU (DNA:RNA)
RNA: B7 RNA with U25C, U27A, A28C, A29G, G31U
DNA 1: CAATCTGAATTCCGGTCTCCC
DNA 2: TGGTGGCTACGACGGGATT
B28: UCCGAAG (DNA:RNA)
RNA: B7 RNA with G26C, U27C, A28G, U30A
DNA 1: CAATCTGAATTCCGGTCTCCC
DNA 2: TGGTGGCTACGACGGGATT
B29: UCUUUAC (DNA:RNA)
RNA: B7 RNA with G26C, A28U, A29U, U30A, G31C
DNA 1: CAATCTGAATTCCGGTCTCCC
DNA 2: TGGTGGCTACGACGGGATT
B30: AAUGCAA (DNA:RNA)
RNA: B1 RNA with G25A, U26A, G27U, G30A, U31A
DNA 1: CAATCTGAATTCCGGTCTCCC
DNA 2: TGGTGGCTACGACGGGATT
B31: CUUCUAA (DNA:RNA)
RNA: B1 RNA with G25C, G27U, G28C, C29U, G30A, U31A
DNA 1: CAATCTGAATTCCGGTCTCCC
DNA 2: TGGTGGCTACGACGGGATT

Target: T1, RBFOX1 RRM RbFoxmut (Fox-RRM*) (Homo sapiens, UniProt Q9NWB1 109-208, R118D;E147R;N151S;E152T)
T1 sequence: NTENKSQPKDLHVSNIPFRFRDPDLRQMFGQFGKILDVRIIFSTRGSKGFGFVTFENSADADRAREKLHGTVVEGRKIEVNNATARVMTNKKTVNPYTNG
Experiment: EMSA; HiTS-Eq, 1 nM pool, 10 min; buffer printed only for the single-RNA assays: 10 mM Tris pH 7.5, 150 mM NaCl, 3.4 mM EDTA, 0.001% NP-40, 30 C
Conditions: tags: His6 N-terminal (pET28a); label: 5' 32P
Outline: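 These values rest on relative association constants, computed from read-count changes of each RNA species versus the control reaction and normalised to the cognate motif. Reads came from free RNA recovered by 8% native PAGE after purified RbFox RRM (wild type or mutant) at increasing concentrations was equilibrated for 10 min in 50 µL with 1 nM of a 5′-radiolabelled pool with 7 randomized nucleotides and DNA-annealed flanks.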

Binder	binding signal
B1	0.157 KA relative to UGCAUGU
B2	0.0539 KA relative to UGCAUGU
B3	0.15 KA relative to UGCAUGU
B4	0.19 KA relative to UGCAUGU
B5	0.0938 KA relative to UGCAUGU
B6	0.0682 KA relative to UGCAUGU
B7	0.381 KA relative to UGCAUGU
B8	0.125 KA relative to UGCAUGU
B9	0.0553 KA relative to UGCAUGU
B10	0.0537 KA relative to UGCAUGU
B11	0.0872 KA relative to UGCAUGU
B12	0.109 KA relative to UGCAUGU
B13	0.0975 KA relative to UGCAUGU
B14	0.0899 KA relative to UGCAUGU
B15	0.107 KA relative to UGCAUGU
B16	0.136 KA relative to UGCAUGU

Binder	binding signal
B17	0.0907 KA relative to UGCAUGU
B18	0.0827 KA relative to UGCAUGU
B19	0.095 KA relative to UGCAUGU
B20	0.0962 KA relative to UGCAUGU
B21	0.0877 KA relative to UGCAUGU
B22	0.086 KA relative to UGCAUGU
B23	0.0719 KA relative to UGCAUGU
B24	0.102 KA relative to UGCAUGU
B25	0.0835 KA relative to UGCAUGU
B26	0.0801 KA relative to UGCAUGU
B27	0.0858 KA relative to UGCAUGU
B28	0.0694 KA relative to UGCAUGU
B29	0.0821 KA relative to UGCAUGU
B30	0.0626 KA relative to UGCAUGU
B31	0.124 KA relative to UGCAUGU
